The entries are a selection whose mix differs from that of the whole data set. For some of these results: The list includes weakly bound sequences.
Molecular target: T1, GST-Nv-NF-kB (Cys allele) (UniProt E5G601)
T1 sequence: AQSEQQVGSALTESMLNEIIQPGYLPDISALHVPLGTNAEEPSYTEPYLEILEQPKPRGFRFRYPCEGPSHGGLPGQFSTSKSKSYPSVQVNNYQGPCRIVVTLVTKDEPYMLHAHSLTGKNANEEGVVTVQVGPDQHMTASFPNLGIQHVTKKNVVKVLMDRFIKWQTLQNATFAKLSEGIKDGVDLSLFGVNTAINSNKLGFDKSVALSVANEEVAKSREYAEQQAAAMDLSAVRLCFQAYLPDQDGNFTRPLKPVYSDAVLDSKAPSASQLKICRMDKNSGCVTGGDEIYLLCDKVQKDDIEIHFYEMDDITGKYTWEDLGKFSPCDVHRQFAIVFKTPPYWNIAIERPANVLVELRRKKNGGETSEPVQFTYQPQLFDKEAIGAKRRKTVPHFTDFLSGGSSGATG
Test: protein-binding microarray (PBM)
Conditions: PBM: ~300 nM protein, 6 mM HEPES pH 7.8, 80 mM KCl, 0.5 mM EDTA, 0.5 mM EGTA, 6% glycerol, 35 ng/ul poly-dIdC, 1% milk, 1 h, room temperature; high values mean tight binding; double strand, one strand shown

Row | Sequence | binding signal [z-score]
1 | CCGATTAACATCAGTACTCCCCATGATGTTAATCGGGTCTTGATTCGCTTGACGCTGCTG | 2.81
2 | CCGATTAACATCAAGGGTATTCCTGATGTTAATCGGGTCTTGATTCGCTTGACGCTGCTG | 5.81
3 | CCGATTAACATCAGGGATGCCCCTGATGTTAATCGGGTCTTGATTCGCTTGACGCTGCTG | 8.09

Molecular target: T2, GST-Dm-Relish (UniProt Q94527)
T2 sequence: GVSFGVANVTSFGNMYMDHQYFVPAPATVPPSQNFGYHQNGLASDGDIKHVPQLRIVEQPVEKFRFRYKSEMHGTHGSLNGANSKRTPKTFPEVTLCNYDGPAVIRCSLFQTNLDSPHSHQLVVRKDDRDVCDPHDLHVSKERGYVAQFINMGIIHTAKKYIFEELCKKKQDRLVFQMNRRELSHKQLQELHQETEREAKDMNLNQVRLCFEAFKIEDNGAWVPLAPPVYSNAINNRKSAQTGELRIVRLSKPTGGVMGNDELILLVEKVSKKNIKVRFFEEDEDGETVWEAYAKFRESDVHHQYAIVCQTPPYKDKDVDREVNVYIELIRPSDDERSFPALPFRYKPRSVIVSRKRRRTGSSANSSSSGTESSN
Test: protein-binding microarray (PBM)
Conditions: PBM: ~300 nM protein, 6 mM HEPES pH 7.8, 80 mM KCl, 0.5 mM EDTA, 0.5 mM EGTA, 6% glycerol, 35 ng/ul poly-dIdC, 1% milk, 1 h, room temperature; Ap Aiptasia and Nv Nematostella (sea anemones) / Co Capsaspora / Aq Amphimedon (sponge) / Dm Drosophila / Hu human; RHD is the Rel homology domain; high values mean tight binding; most listed sequences are background and not binding sites; double strand, one strand shown

Row | Sequence | binding signal [z-score]
4 | CCGATTAACATCACCACCCCCCCTGATGTTAATCGGGTCTTGATTCGCTTGACGCTGCTG | 4.58
5 | CCGATTAACATCAAGAATTCCCGTGATGTTAATCGGGTCTTGATTCGCTTGACGCTGCTG | 4.9
6 | CCGATTAACATCACAACACCCCCTGATGTTAATCGGGTCTTGATTCGCTTGACGCTGCTG | 4.4
7 | CCGATTAACATCAGGGGGTAGAATGATGTTAATCGGGTCTTGATTCGCTTGACGCTGCTG | 2.13
8 | CCGATTAACATCACGTACTTCCCTGATGTTAATCGGGTCTTGATTCGCTTGACGCTGCTG | 7.92
9 | CCGATTAACATCACGGGAACCCCTGATGTTAATCGGGTCTTGATTCGCTTGACGCTGCTG | 9.89
10 | CCGATTAACATCAATTGGGAAAATGATGTTAATCGGGTCTTGATTCGCTTGACGCTGCTG | 0.367
11 | CCGATTAACATCAACGGGAATTCTGATGTTAATCGGGTCTTGATTCGCTTGACGCTGCTG | 4.15
12 | CCGATTAACATCACATTGGGAAATGATGTTAATCGGGTCTTGATTCGCTTGACGCTGCTG | 1.18
13 | CCGATTAACATCACAGAAACCCCTGATGTTAATCGGGTCTTGATTCGCTTGACGCTGCTG | 6.6
14 | CCGATTAACATCAAGGGGGTACTTGATGTTAATCGGGTCTTGATTCGCTTGACGCTGCTG | 2.88
15 | CCGATTAACATCAGGGACGGAAATGATGTTAATCGGGTCTTGATTCGCTTGACGCTGCTG | 0.258
16 | CCGATTAACATCACCTATTCCCCTGATGTTAATCGGGTCTTGATTCGCTTGACGCTGCTG | 2.23

— article PMC5700166
